Data as given in PMC11017395 (ACS Medicinal Chemistry Letters, 2024).
≈ marks a conversion by molar mass, not a printed value.

Legend:
in vitro [1] = settings: human, pH 7.4
physchem [2] = settings: for solubility: pH 7.4, Sol. (solubility)
Method: Aqueous Solubility. Solubility was measured from amorphous solid forms of the compounds using the turbidimetric method. Following the dissolution of test compound in DMSO to make a 10 mM stock solution, a pre-dilution plate was prepared by taking from each stock solution and serially […]
pre-dilution solution, secondary dilutions of the compounds in both DMSO and 0.01M pH 7.4 PBS were prepared in triplicate on a second 96-well plate. Wells in columns 1-6 would contain […]
(§1) nominal concentrations as those in DMSO. The final volume of solvent in each assay plate was 200 µl, prepared by pipetting 4 µl each of solution from the pre-dilution plate to the corresponding well into both DMSO and PBS (both 196 µL). This ensures that the final concentration of DMSO in the […]
(§2) Similarly, a second secondary plate containing
(§3) Different concentrations in DMSO were prepared as controls to determine false turbidimetric absorbance readings arising from the compounds in solution absorbing incident radiation at the test wavelength. Following preparation, the assay plate was covered and left to equilibrate for 2 h at 25 °C. Afterwards, UV-vis absorbance readings from the plate were measured at 620 nm using a SpectraMax 340PC384 microplate reader. Plots of corrected absorbance against compound concentration were computed for a graphical representation of the data using MS Excel. Reserpine and hydrocortisone were used as positive and negative controls, respectively.
(§4) In vitro Antiplasmodium Assay. The compounds were tested using the modified [3H]-hypoxanthine incorporation assay, as previously reported.1
(§5) In vitro Cytotoxicity Assay. Compounds were screened against Chinese Hamster Ovarian (CHO) mammalian cell lines, using the 3-(4,5-dimethylthiazol-2-yl)-2,5-diphenyltetrazoliumbromide […]
(§6) It was prepared to 2 mg/ml in distilled water, while the stock solutions of test compounds were prepared to 20 mg/ml in DMSO (100%), […]
(§7) lowest being 0.001 µg/ml. […]
(§8) of cell suspension in each well and developed afterward by adding 25 µl of sterile MTT (Thermo

[3] = system: immature-stage gametocytes (PfiGc), NF54-PfS16-GFP-Luc; experiment: Antigametocytic luciferase reporter assay, immature/early stage; settings: Plasmodium falciparum; for inhibition at 1 µM / inhibition at 5 µM: NF54, 48 h; for inhibition at 1 µM: read-out: Early gametocytes (EG) % activity, 1.0 µM; for inhibition at 5 µM: read-out: Early gametocytes (EG) % activity, 5.0 µM; for IC50: NF54, read-out: gametocytes IC50, immature-stage (PfiGc / PfEG)
physchem [4] = settings: pH 7.4
[5] = system: drug sensitive (NF54) strain of Pf; experiment: In vitro antiplasmodium assay, [3H]-hypoxanthine incorporation, NF54; assay type: cell-based; settings: Plasmodium falciparum, NF54, read-out: PfIC50 NF54, sensitive NF54 strain; mean n ≥ 2
Method: All target compounds were evaluated for their antiplasmodium activity against the drug sensitive (NF54) strain of Pf and for turbidimetric kinetic solubility.
Aqueous Solubility. Solubility was measured from amorphous solid forms of the compounds using the turbidimetric method. Following the dissolution of test compound in DMSO to make a 10 mM stock solution, a pre-dilution plate was prepared by taking from each stock solution and serially diluting in triplicate to yield concentrations from 0.25 mM to 10.0 mM on a 96 well plate. From each pre-dilution solution, secondary dilutions of the compounds in both DMSO and 0.01M pH 7.4 PBS were prepared in triplicate on a second 96-well plate. Wells in columns 1-6 would contain […]
as §1, §2, §3, §4, §5, §6, §7, §8

in vitro [6] = settings: mouse, pH 7.4
[7] = system: late-stage gametocytes (PfLGc), NF54-PfS16-GFP-Luc; experiment: Antigametocytic luciferase reporter assay, late stage; settings: Plasmodium falciparum; for inhibition at 1 µM / inhibition at 5 µM: NF54, 48 h; for inhibition at 1 µM: read-out: Late gametocytes (LG) % activity, 1.0 µM; for inhibition at 5 µM: read-out: Late gametocytes (LG) % activity, 5.0 µM; for IC50: NF54, read-out: gametocytes IC50, late-stage (PfLGc / PfLG)
Description: In vitro Antigametocytic Activity Assay. Gametocytes were produced as per the method reported by Reader and co-workers.3 The luciferase reporter assay was used to enable accurate, reliable and quantifiable investigations of the stage-specific action of gametocytocidal compounds for the early and late gametocyte marker cell line NF54-PfS16-GFP-Luc.
(representing >90% of either early stage II/III or mature/late stage IV/V gametocytes, respectively). […]
h drug pressure in a gas chamber (90% N 2, 5% O 2, and 5% CO 2) at 37 °C. Luciferase activity was determined in 30 µl parasite lysates by adding 30 µl luciferin substrate (Promega Luciferase Assay System) at room temperature and detection of resultant bioluminescence at an integration constant of 10s with the GloMax® Explorer Detection System with Instinct® Software. […]
µM) and internal project specific controls were included as controls. The dual point screens were performed as technical triplicates for a single biological assay.

in vivo = settings: male, Balb/c, mouse
[8] = system: PfK1 multidrug resistant strain; experiment: microbe, parasite or virus in culture; assay type: cell-based; settings: Plasmodium falciparum, K1, read-out: PfIC50 K1
[9] = system: P. berghei (Pb)-infected HepG2 cell; experiment: microbe, parasite or virus in culture; settings: Plasmodium berghei, HepG2, read-out: liver-stage PbHepG2 IC50

| SMILES | solubility (physchem [2]) | inhibition at 1 µM [3] | inhibition at 5 µM [3] | IC50 [3] | logD (physchem [4]) | IC50 [5] | microsomal CLint at 0.1 µM (in vitro [6]) | inhibition at 1 µM [7] | inhibition at 5 µM [7] | microsomal CLint at 0.1 µM (in vitro [1]; pooled liver microsomes) | remaining at 0.5 h, 0.1 µM (in vitro [1]; pooled liver microsomes) | Vd at 24 h (in vivo; iv, 3 mg/kg) | half-life at 24 h (in vivo; iv, 3 mg/kg) | Tmax at 24 h (in vivo; po, 10 mg/kg) | bioavailability at 24 h (in vivo; po, 10 mg/kg) | half-life at 24 h (in vivo; po, 10 mg/kg) | microsomal CLint at 0.1 µM (in vitro [6]; liver microsomes) | remaining at 0.5 h, 0.1 µM (in vitro [6]; liver microsomes) | IC50 [7] | IC50 [8] | other results |
| --- | --- | --- | --- | --- | --- | --- | --- | --- | --- | --- | --- | --- | --- | --- | --- | --- | --- | --- | --- | --- | --- |
| FC(F)(F)c1nc(-c2ccc(CCN3CCC(Nc4nc5ncccc5[nH]4)CC3)cc2)no1 [Compound 9] | 160 µM (≈ 73.2 µg/mL) | 0.5% | 1.6 ± 2.7% | 8.32 µM | 0.24 | 244 nM | < 11.6 µL/min/mg | 6 ± 10.4% | 0% |  |  |  |  |  |  |  |  |  |  |  | remaining at 0.5 h, 0.1 µM (in vitro [1]; microsomes): 96.9%; microsomal CLint at 0.1 µM (in vitro [1]): < 11.6 µL/min/mg; remaining at 0.5 h, 0.1 µM (in vitro [6]; microsomes): 99.1% |
| Cc1ccc2[nH]c(NC3CCN(CCc4ccc(-c5noc(C(F)(F)F)n5)cc4)CC3)nc2n1 [Compound 10] | 120 µM (≈ 56.6 µg/mL) | 39.1% | 66.5 ± 4.7% | 1.62 µM |  | 54 nM |  | 1.1 ± 1.8% | 56.2 ± 7.7% | < 11.6 µL/min/mg | 96.6% | 43.6 L/kg | 186 min | 30 min | 65.2% | 228 min | < 11.6 µL/min/mg | 98.3% | 4620 nM | 82 nM |  |
| FC(F)(F)c1nc(-c2ccc(CCN3CCC(Nc4nc5cnccc5[nH]4)CC3)cc2)no1 [Compound 11] | 150 µM (≈ 68.6 µg/mL) | 40.6 ± 0.2% | 85.8 ± 1.4% | 1.24 µM | -0.82 | 17 nM | < 11 µL/min/mg | 30.9 ± 5% | 83 ± 1.7% | < 11.6 µL/min/mg | 98.9% | 36.1 L/kg | 378 min | 42 min | 14.9% | 288 min | < 11.6 µL/min/mg | 97.8% | 1390 nM | 33 nM | Sol. (solubility) (physchem [2]; pH 7.4): 160 µM; Cmax at 24 h (in vivo; po, 10 mg/kg): 100 nM; IC50 [9]: 2300 ± 400 nM |
| FC(F)(F)c1nc(-c2ccc(CCN3CCC(Nc4nc5cnc(Cl)cc5[nH]4)CC3)cc2)no1 [Compound 12] | 80 µM (≈ 39.4 µg/mL) | 3.4 ± 2.6% | 23.4 ± 4.6% | 5.85 µM |  | 112 nM |  | 31.1 ± 3.5% | 66.5 ± 2% | < 11.6 µL/min/mg | 98.5% |  |  |  |  |  | < 11.6 µL/min/mg | 96.8% | 1880 nM | 384 nM |  |
| FC(F)(F)c1nc(-c2ccc(CCN3CCC(Nc4nc5ccccc5[nH]4)C(F)(F)C3)cc2)no1 (stereo not shown) [Compound 15] | 80 µM (≈ 39.4 µg/mL) |  |  |  |  |  |  |  |  |  |  |  |  |  |  |  |  |  |  |  |  |
